Molecular target: ApoE4 (lipid-free) (human) (UniProt P02649)
Assay: SDS-stable complex by SDS-PAGE and Western blot; 50 uM S100A9 with 2 uM lipid-free or lipidated ApoE isoform, PBS, 42 C, 70 h, non-stirring; reducing Laemmli buffer, 4-20% gel; Coomassie and Western blot with anti-S100A9 polyclonal antibody (Invitrogen)

stoichiometry N: 2
Substance: ApoE4 (lipid-free) (a stretch of the chain, no sequence given) (natural protein; other documents disagree on this pair)
